# In paper PMC9911399, “Two distinct binding modes provide the RNA-binding protein RbFox with extraordinary sequence specificity”:
# Where a chain is given by its changes, count along the chain named. The list shows a part of the results.
# T1: RBFOX1 RRM (Homo sapiens, UniProt Q9NWB1 109-208)
# T1 sequence: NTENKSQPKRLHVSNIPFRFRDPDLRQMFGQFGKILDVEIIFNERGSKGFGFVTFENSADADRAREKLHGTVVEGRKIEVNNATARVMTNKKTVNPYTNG
# B1: CGUUAAC (DNA:RNA)
# RNA: GGGAGACCGGAAUUCAGAUUGUCCCGUUAACUUAAAUCCCGUCGUAGCCACCA
# DNA 1: CAATCTGAATTCCGGTCTCCC
# DNA 2: TGGTGGCTACGACGGGATT
# B2: AGGAGAG (DNA:RNA)
# RNA: B1 RNA with C25A, U27G, U28A, A29G, C31G
# DNA 1: CAATCTGAATTCCGGTCTCCC
# DNA 2: TGGTGGCTACGACGGGATT
# B3: UUGUUGC (DNA:RNA)
# RNA: B1 RNA with C25U, G26U, U27G, A29U, A30G
# DNA 1: CAATCTGAATTCCGGTCTCCC
# DNA 2: TGGTGGCTACGACGGGATT
# B4: UGGCGCA (DNA:RNA)
# RNA: B1 RNA with C25U, U27G, U28C, A29G, A30C, C31A
# DNA 1: CAATCTGAATTCCGGTCTCCC
# DNA 2: TGGTGGCTACGACGGGATT
# B5: GGCGCCU (DNA:RNA)
# RNA: B1 RNA with C25G, U27C, U28G, A29C, A30C, C31U
# DNA 1: CAATCTGAATTCCGGTCTCCC
# DNA 2: TGGTGGCTACGACGGGATT
# B6: UGUGACA (DNA:RNA)
# RNA: B1 RNA with C25U, U28G, A30C, C31A
# DNA 1: CAATCTGAATTCCGGTCTCCC
# DNA 2: TGGTGGCTACGACGGGATT
# B7: AUACUUC (DNA:RNA)
# RNA: B1 RNA with C25A, G26U, U27A, U28C, A29U, A30U
# DNA 1: CAATCTGAATTCCGGTCTCCC
# DNA 2: TGGTGGCTACGACGGGATT
# B8: CAGUCGA (DNA:RNA)
# RNA: B1 RNA with G26A, U27G, A29C, A30G, C31A
# DNA 1: CAATCTGAATTCCGGTCTCCC
# DNA 2: TGGTGGCTACGACGGGATT
# B9: AAAGGAU (DNA:RNA)
# RNA: B1 RNA with C25A, G26A, U27A, U28G, A29G, C31U
# DNA 1: CAATCTGAATTCCGGTCTCCC
# DNA 2: TGGTGGCTACGACGGGATT
# B10: AGAUAGU (DNA:RNA)
# RNA: B1 RNA with C25A, U27A, A30G, C31U
# DNA 1: CAATCTGAATTCCGGTCTCCC
# DNA 2: TGGTGGCTACGACGGGATT
# B11: ACAACAU (DNA:RNA)
# RNA: B1 RNA with C25A, G26C, U27A, U28A, A29C, C31U
# DNA 1: CAATCTGAATTCCGGTCTCCC
# DNA 2: TGGTGGCTACGACGGGATT
# B12: CAUGCGG (DNA:RNA)
# RNA: B1 RNA with G26A, U28G, A29C, A30G, C31G
# DNA 1: CAATCTGAATTCCGGTCTCCC
# DNA 2: TGGTGGCTACGACGGGATT
# B13: CACGGCG (DNA:RNA)
# RNA: B1 RNA with G26A, U27C, U28G, A29G, A30C, C31G
# DNA 1: CAATCTGAATTCCGGTCTCCC
# DNA 2: TGGTGGCTACGACGGGATT
# B14: CCGCCCU (DNA:RNA)
# RNA: B1 RNA with G26C, U27G, U28C, A29C, A30C, C31U
# DNA 1: CAATCTGAATTCCGGTCTCCC
# DNA 2: TGGTGGCTACGACGGGATT
# B15: UCUAACU (DNA:RNA)
# RNA: B1 RNA with C25U, G26C, U28A, A30C, C31U
# DNA 1: CAATCTGAATTCCGGTCTCCC
# DNA 2: TGGTGGCTACGACGGGATT
# B16: UGGUUUU (DNA:RNA)
# RNA: B1 RNA with C25U, U27G, A29U, A30U, C31U
# DNA 1: CAATCTGAATTCCGGTCTCCC
# DNA 2: TGGTGGCTACGACGGGATT
# B17: GUGCUCU (DNA:RNA)
# RNA: GGGAGACCGGAAUUCAGAUUGUCCGUGCUCUUUAAAUCCCGUCGUAGCCACCA
# DNA 1: CAATCTGAATTCCGGTCTCCC
# DNA 2: TGGTGGCTACGACGGGATT
# B18: UGAUACU (DNA:RNA)
# RNA: B1 RNA with C25U, U27A, A30C, C31U
# DNA 1: CAATCTGAATTCCGGTCTCCC
# DNA 2: TGGTGGCTACGACGGGATT
# B19: UAUGUAG (DNA:RNA)
# RNA: B1 RNA with C25U, G26A, U28G, A29U, C31G
# DNA 1: CAATCTGAATTCCGGTCTCCC
# DNA 2: TGGTGGCTACGACGGGATT
# B20: GCCGAAA (DNA:RNA)
# RNA: B1 RNA with C25G, G26C, U27C, U28G, C31A
# DNA 1: CAATCTGAATTCCGGTCTCCC
# DNA 2: TGGTGGCTACGACGGGATT
# Molecular target: T1, RBFOX1 RRM
# Assay: EMSA; HiTS-Eq, 1 nM pool, 10 min; buffer printed only for the single-RNA assays: 10 mM Tris pH 7.5, 150 mM NaCl, 3.4 mM EDTA, 0.001% NP-40, 30 C
# Details: tags: His6 N-terminal (pET28a); label: 5' 32P
# Outline: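 Relative association constants, normalised to the cognate motif, were derived by comparing read counts of each RNA species with those of the control reaction. The RNA sequenced was the free fraction, separated by 8% native PAGE after a 10 min equilibration in 50 µL of 1 nM 5′-radiolabelled RNA (7 randomized nucleotides) with increasing concentrations of purified wild-type or mutant RbFox RRM.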
row,Binder,binding signal
1,B1,0.00654 KA relative to UGCAUGU
2,B2,0.0161 KA relative to UGCAUGU
3,B3,0.0249 KA relative to UGCAUGU
4,B4,0.0218 KA relative to UGCAUGU
5,B5,0.00816 KA relative to UGCAUGU
6,B6,0.00766 KA relative to UGCAUGU
7,B7,0.00231 KA relative to UGCAUGU
8,B8,0.007 KA relative to UGCAUGU
9,B9,0.00514 KA relative to UGCAUGU
10,B10,0.0135 KA relative to UGCAUGU
11,B11,0.000895 KA relative to UGCAUGU
12,B12,0.00709 KA relative to UGCAUGU
13,B13,0.00873 KA relative to UGCAUGU
14,B14,0.00248 KA relative to UGCAUGU
15,B15,0.00261 KA relative to UGCAUGU
16,B16,0.0278 KA relative to UGCAUGU
17,B17,0.0226 KA relative to UGCAUGU
18,B18,0.0132 KA relative to UGCAUGU
19,B19,0.018 KA relative to UGCAUGU
20,B20,0.0107 KA relative to UGCAUGU
